Source: the supplement of paper PMC4967469
A lower IC50 marks a more sensitive line; fits outside the tested doses are given as limits. AUC is the area under the same curve over the 256-fold range up to the top dose, as a fraction; it is 1 without any effect and falls as sensitivity rises. For some assays here: The top dose, if marked as inferred, comes from the curve model; the source does not state it. For some assays here: Drugs with an entry number were screened twice under separate entries, and the two screens often disagree.

What was measured:
Assay in all cases: Viability of human cancer cell lines after 72 h of drug (GDSC screen)
AZ628 = compound: Cc1ccc(NC(=O)c2cccc(C(C)(C)C#N)c2)cc1Nc1ccc2ncn(C)c(=O)c2c1 [AZ628]; conditions: top dose 4 µM; top dose inferred
Protocol: (§1)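 Human cancer cell lines in 384-well plates, medium with 10% serum, drug for 72 h over a 256-fold dose range (nine 2-fold or five 4-fold steps up to the top dose). Adherent lines were fixed and stained with the nucleic acid dye Syto60, suspension lines read with resazurin; signal relative to control wells, capped at 0 and 100%. One two-parameter sigmoid per drug and line, fitted in a mixed model over all curves with the slope shared within a line.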

AS601245 = compound: N#CC(c1ccnc(NCCc2cccnc2)n1)c1nc2ccccc2s1 [AS601245]; conditions: top dose 8 µM; top dose inferred
Protocol: as §1

EX-527 = compound: NC(=O)C1CCCc2c1[nH]c1ccc(Cl)cc21 [EX-527]; conditions: top dose 20 µM
Protocol: as §1

YM201636 = compound: Nc1ccc(C(=O)Nc2cccc(-c3nc(N4CCOCC4)c4oc5ncccc5c4n3)c2)cn1 [YM201636]; conditions: top dose 5.12 µM; top dose inferred
Protocol: as §1

AZD6244 = compound: Cn1cnc2c(F)c(Nc3ccc(Br)cc3Cl)c(C(=O)NOCCO)cc21 [AZD6244]; conditions: top dose 4 µM; screen: GDSC drug entry 1498; top dose inferred
Protocol: as §1

Cell Line: BC-3 (B-cell lymphoma, suspension)
- AUC (AZ628): 0.875
- IC50 (AZ628): 3.2 µM
- AUC (AS601245): 0.907
- IC50 (AS601245): > 8 µM
- AUC (EX-527): 0.987
- IC50 (EX-527): > 20 µM
- AUC (YM201636): 0.842
- IC50 (YM201636): 3.06 µM

Cell Line: CAL-148 (breast, suspension)
- AUC (AZ628): 0.99
- IC50 (AZ628): > 4 µM
- AUC (AS601245): 0.988
- IC50 (AS601245): > 8 µM
- AUC (EX-527): 0.982
- IC50 (EX-527): > 20 µM
- AUC (YM201636): 0.917
- IC50 (YM201636): > 5.12 µM

Cell Line: CGTH-W-1 (thyroid, adherent)
- AUC (AZ628): 0.404
- IC50 (AZ628): 0.137 µM
- AUC (AS601245): 0.839
- IC50 (AS601245): 5.42 µM
- AUC (EX-527): 0.986
- IC50 (EX-527): > 20 µM
- AUC (YM201636): 0.902
- IC50 (YM201636): > 5.12 µM

Cell Line: CRO-AP2 (B-cell lymphoma, suspension)
- AUC (AZ628): 0.966
- IC50 (AZ628): > 4 µM
- AUC (AZD6244): 0.963
- IC50 (AZD6244): > 4 µM

Cell Line: D-247MG (glioma, adherent)
- AUC (AZ628): 0.819
- IC50 (AZ628): 3.43 µM
- AUC (AZD6244): 0.927
- IC50 (AZD6244): > 4 µM
- AUC (EX-527): 0.974
- IC50 (EX-527): > 20 µM
- AUC (YM201636): 0.962
- IC50 (YM201636): > 5.12 µM

Cell Line: D-336MG (glioma, adherent)
- AUC (AZ628): 0.942
- IC50 (AZ628): > 4 µM
- AUC (AZD6244): 0.854
- IC50 (AZD6244): > 4 µM
- AUC (EX-527): 0.975
- IC50 (EX-527): > 20 µM
- AUC (YM201636): 0.844
- IC50 (YM201636): > 5.12 µM

Cell Line: D-542MG (glioma, adherent)
- AUC (AZ628): 0.939
- IC50 (AZ628): > 4 µM
- AUC (AZD6244): 0.921
- IC50 (AZD6244): > 4 µM
- AUC (EX-527): 0.98
- IC50 (EX-527): > 20 µM
- AUC (YM201636): 0.976
- IC50 (YM201636): > 5.12 µM

Cell Line: DND-41 (T-cell leukaemia, suspension)
- AUC (AZ628): 0.809
- IC50 (AZ628): 1.8 µM
- AUC (AZD6244): 0.93
- IC50 (AZD6244): > 4 µM
- AUC (AS601245): 0.794
- IC50 (AS601245): 3.2 µM

Cell Line: DOHH-2 (B-cell lymphoma, suspension)
- AUC (AZ628): 0.741
- IC50 (AZ628): 1.2 µM
- AUC (AS601245): 0.861
- IC50 (AS601245): 6.53 µM

Cell Line: ECC12 (stomach, suspension)
- AUC (AZ628): 0.765
- IC50 (AZ628): 1.83 µM

Cell Line: EHEB (lymphoid neoplasm, suspension)
- AUC (AZ628): 0.817
- IC50 (AZ628): 3.72 µM
- AUC (AZD6244): 0.781
- IC50 (AZD6244): 2.52 µM
- AUC (AS601245): 0.874
- IC50 (AS601245): > 8 µM

Cell Line: EW-12 (Ewing sarcoma, suspension)
- AUC (AZ628): 0.841
- IC50 (AZ628): > 4 µM

Cell Line: EW-22 (Ewing sarcoma, adherent)
- AUC (AZ628): 0.839
- IC50 (AZ628): 2.57 µM
- AUC (AZD6244): 0.986
- IC50 (AZD6244): > 4 µM

Cell Line: GA-10 (Burkitt lymphoma, suspension)
- AUC (AZ628): 0.815
- IC50 (AZ628): 1.77 µM
- AUC (AZD6244): 0.968
- IC50 (AZD6244): > 4 µM

Cell Line: GCIY (stomach, adherent)
- AUC (AZ628): 0.96
- IC50 (AZ628): > 4 µM
- AUC (AS601245): 0.847
- IC50 (AS601245): 7.1 µM
- AUC (EX-527): 0.974
- IC50 (EX-527): > 20 µM
- AUC (YM201636): 0.899
- IC50 (YM201636): > 5.12 µM

Cell Line: HCC1599 (breast, suspension)
- AUC (AZ628): 0.844
- IC50 (AZ628): 3.49 µM
- AUC (AS601245): 0.866
- IC50 (AS601245): > 8 µM
- AUC (EX-527): 0.982
- IC50 (EX-527): > 20 µM
- AUC (YM201636): 0.821
- IC50 (YM201636): 3.54 µM

Cell Line: HCC-33 (small cell lung carcinoma, adherent)
- AUC (AZ628): 0.982
- IC50 (AZ628): > 4 µM
- AUC (AS601245): 0.971
- IC50 (AS601245): > 8 µM
- AUC (EX-527): 0.987
- IC50 (EX-527): > 20 µM
- AUC (YM201636): 0.948
- IC50 (YM201636): > 5.12 µM

Cell Line: HH (T-cell leukaemia, suspension)
- AUC (AZ628): 0.945
- IC50 (AZ628): > 4 µM
- AUC (AZD6244): 0.957
- IC50 (AZD6244): > 4 µM
- AUC (AS601245): 0.832
- IC50 (AS601245): 7.66 µM
- AUC (EX-527): 0.943
- IC50 (EX-527): > 20 µM

Cell Line: HL-60 (acute myeloid leukaemia, suspension)
- AUC (AZ628): 0.431
- IC50 (AZ628): 0.165 µM
- AUC (AZD6244): 0.793
- IC50 (AZD6244): 1.62 µM
- AUC (AS601245): 0.912
- IC50 (AS601245): > 8 µM
- AUC (EX-527): 0.99
- IC50 (EX-527): > 20 µM

Cell Line: IM-9 (myeloma, suspension)
- AUC (AZ628): 0.9
- IC50 (AZ628): 3.89 µM
- AUC (AZD6244): 0.846
- IC50 (AZD6244): 2.35 µM
- AUC (AS601245): 0.876
- IC50 (AS601245): 6.08 µM

Cell Line: IST-SL2 (small cell lung carcinoma, suspension)
- AUC (AZ628): 0.81
- IC50 (AZ628): 2.09 µM
- AUC (AZD6244): 0.986
- IC50 (AZD6244): > 4 µM
- AUC (AS601245): 0.841
- IC50 (AS601245): 5.5 µM
- AUC (EX-527): 0.989
- IC50 (EX-527): > 20 µM

Cell Line: K-562 (chronic myeloid leukaemia, suspension)
- AUC (AZ628): 0.72
- IC50 (AZ628): 1.03 µM
- AUC (AS601245): 0.944
- IC50 (AS601245): > 8 µM

Cell Line: KARPAS-231 (B-cell leukaemia, suspension)
- AUC (AZ628): 0.835
- IC50 (AZ628): 1.83 µM
- AUC (AZD6244): 0.991
- IC50 (AZD6244): > 4 µM
- AUC (AS601245): 0.915
- IC50 (AS601245): 6.96 µM

Cell Line: KASUMI-1 (acute myeloid leukaemia, suspension)
- AUC (AZ628): 0.964
- IC50 (AZ628): > 4 µM
- AUC (AZD6244): 0.728
- IC50 (AZD6244): 1.12 µM

Cell Line: KP-N-YS (neuroblastoma, adherent)
- AUC (AZ628): 0.947
- IC50 (AZ628): > 4 µM
- AUC (AS601245): 0.912
- IC50 (AS601245): > 8 µM
- AUC (EX-527): 0.934
- IC50 (EX-527): > 20 µM
- AUC (YM201636): 0.871
- IC50 (YM201636): > 5.12 µM

Cell Line: LB647-SCLC (small cell lung carcinoma, semi-adherent)
- AUC (AZ628): 0.981
- IC50 (AZ628): > 4 µM
- AUC (AZD6244): 0.983
- IC50 (AZD6244): > 4 µM
- AUC (AS601245): 0.971
- IC50 (AS601245): > 8 µM
- AUC (EX-527): 0.913
- IC50 (EX-527): > 20 µM
